# Experimental data published in PMC6212790.
# The other results are listed elsewhere or left out. At the low end of the ranking the order means little.
# Target: T1, GST-Rok (full length) (UniProt O34857)
# T1 sequence: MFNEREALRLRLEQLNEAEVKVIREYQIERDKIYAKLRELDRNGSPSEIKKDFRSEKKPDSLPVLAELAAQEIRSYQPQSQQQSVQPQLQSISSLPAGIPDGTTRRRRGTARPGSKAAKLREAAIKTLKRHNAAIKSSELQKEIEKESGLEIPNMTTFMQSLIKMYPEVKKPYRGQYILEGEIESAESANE
# Assay: protein binding microarray;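 further: rank score from −0.5 (least bound) to 0.5 (best bound)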
# Settings: Rok is a gene silencer of Bacillus subtilis; high values mean tight binding; most listed sequences are background and not binding sites; double strand, one strand shown
row,Sequence,binding signal
1,GAGGACCA,-0.186 E-score
2,CCATGGTA,0.223 E-score
3,CGGATTGC,-0.176 E-score
4,ATCGAAAA,0.0373 E-score
5,CGCGCGTC,-0.178 E-score
6,CAACTCAA,-0.124 E-score
7,CGACTCAC,-0.104 E-score
8,AACCGCCC,-0.131 E-score
9,CACGGTCC,-0.326 E-score
10,GCAGTAGA,0.342 E-score
11,CAACAGAG,0.0463 E-score
12,ACGAACTG,0.0336 E-score
13,GCAGCAAC,-0.142 E-score
14,CGACAGTC,-0.174 E-score
15,CTTATGAA,0.0948 E-score
16,CTTCAGGA,0.0353 E-score
17,GCATATGC,0.129 E-score
18,GGGCGCGA,-0.256 E-score
19,CGCGTACC,-0.0588 E-score
20,TCCGCAGA,-0.0726 E-score
21,ACGAGTAT,0.148 E-score
22,AGGGCTTA,-0.309 E-score
23,ACTGCAGC,0.0798 E-score
24,CGGTTACA,-0.158 E-score
25,ACGTACTC,0.0411 E-score

row,Sequence,binding signal
1,ATTGAAAA,-0.0522 E-score
2,AACTGTAG,0.308 E-score
3,AACACGTA,0.0614 E-score
4,CACCAACG,-0.105 E-score
5,ATTCATCC,-0.0146 E-score
6,AACGCCAA,-0.131 E-score
7,AGCAACGG,0.208 E-score
8,AATTAATC,0.27 E-score
9,ACGAAATC,0.115 E-score
10,AGGTGCCC,-0.241 E-score
11,GCTCCTGA,-0.203 E-score
12,GCGGGAAA,-0.0972 E-score
13,CGAACCAG,-0.116 E-score
14,GCCAACAA,-0.225 E-score
15,GCCACTCA,-0.242 E-score
16,ACGAGGAC,-0.201 E-score
17,AGAAAACG,0.0853 E-score
18,ATCCATCA,-0.102 E-score
19,AGTTCCGG,-0.0138 E-score
20,CACCACTG,-0.101 E-score
21,AAAAGGGC,-0.196 E-score
22,ACCTCGTG,-0.11 E-score
23,ACCAGGCT,-0.0921 E-score
24,GGGGGAAC,-0.338 E-score
25,CAGCATGG,-0.217 E-score

row,Sequence,binding signal
1,ACTGGGAT,0.00597 E-score
2,AGGCCCGG,-0.465 E-score
3,TCCGGAGA,-0.109 E-score
4,AACGTCTC,-0.125 E-score
5,ATTGGCGC,-0.151 E-score
6,CGGGATGC,-0.249 E-score
7,ATAGTGGC,0.0463 E-score
8,AGAAGCGA,0.0276 E-score
9,CAGACCAA,-0.23 E-score
10,ACTATTTC,0.322 E-score
11,ACTACTTA,0.432 E-score
12,ACTCCAGC,-0.00543 E-score
13,GTGTAAAA,0.244 E-score
14,TTCCAAAA,0.0554 E-score
15,ATTGCCGA,0.0796 E-score
16,AAGCCCCG,-0.283 E-score
17,CCATCTGC,-0.128 E-score
18,CTGCGGAC,0.00589 E-score
19,GGGTGACC,-0.329 E-score
20,ATATAGTA,0.456 E-score
21,CTCCCGTA,-0.203 E-score
22,ACACTTCG,-0.0743 E-score
23,ATCTTAGA,0.00824 E-score
24,AGGATGGC,-0.255 E-score
25,GACGATTA,-0.0545 E-score

row,Sequence,binding signal
1,ATGGCCTG,-0.342 E-score
2,GCGAAGCC,-0.278 E-score
3,ATTGACTA,0.179 E-score
4,AAGCGACT,0.0908 E-score
5,ATCTAAAA,0.185 E-score
6,CCATGGAA,-0.0773 E-score
7,AGCGCCAG,-0.342 E-score
8,ATAGGGTA,0.127 E-score
9,CAGAGGCG,-0.217 E-score
10,CGAAGTAC,0.196 E-score
11,AACCTCTA,-0.0826 E-score
12,CCGCTGAG,-0.239 E-score
13,AATTTTGG,-0.0172 E-score
14,ACGGAAAG,-0.0193 E-score
15,ACCGGGAT,-0.155 E-score
16,CAGAGAAA,-0.0586 E-score
17,CTGGATTC,-0.116 E-score
18,TCCTTTAA,-0.233 E-score
19,CCTTGTAC,0.00133 E-score
20,GAAACGTC,-0.309 E-score
21,GCTTCGCA,-0.216 E-score
22,GGGGCAAA,-0.12 E-score
23,GATCTACC,0.382 E-score
24,GAATTGCC,-0.00624 E-score
25,ACCCAAGA,-0.0666 E-score

row,Sequence,binding signal
1,CCACTTCC,-0.101 E-score
2,AAATGCTT,-0.0853 E-score
3,TACTCTAA,0.0943 E-score
4,ATAGCTTG,0.228 E-score
5,TGTACCAA,0.0996 E-score
6,ACGACTAT,0.0997 E-score
7,GATTGCAA,0.0926 E-score
8,AAAGGAAG,-0.141 E-score
9,GCGTTCCC,-0.143 E-score
10,TCAAGGCA,-0.208 E-score
11,CCAGCGCG,-0.192 E-score
12,AAACCTCC,-0.125 E-score
13,CGCCTCCG,-0.288 E-score
14,AGCAATGA,-0.134 E-score
15,AATGTATG,0.272 E-score
16,CGTTCCCA,-0.163 E-score
17,GTGTGAAA,-0.138 E-score
18,GAATCGAC,0.0717 E-score
19,GAAGTCAA,-0.019 E-score
20,GCAGCGGC,-0.328 E-score
21,CGTAAGAC,0.0556 E-score
22,ACTCACCG,0.07 E-score
23,CTTGAAAC,-0.141 E-score
24,CTGGTAGA,0.335 E-score
25,GCCTTCGC,-0.165 E-score

row,Sequence,binding signal
1,GTTAATCA,0.0792 E-score
2,GGCGTATA,0.0667 E-score
3,AAATTGTT,0.238 E-score
4,AATGTTCT,0.149 E-score
5,AGTACCGC,-0.12 E-score
6,AGTTGAAT,0.0921 E-score
7,ACCAGATC,-0.15 E-score
8,ACTATCGA,0.325 E-score
9,CGAGCTCA,-0.216 E-score
10,CTGGGCTC,-0.388 E-score
11,ACCCGTAA,-0.0332 E-score
12,TGGCTTAA,-0.0862 E-score
13,CCGTAACA,0.0529 E-score
14,AAGAAAGA,-0.0387 E-score
15,CCCTGCTA,-0.128 E-score
16,CGACACAG,-0.021 E-score
17,TAAGAGGA,-0.15 E-score
18,GGTCGGTA,-0.144 E-score
19,GAAGTGAC,-0.161 E-score
20,GCCGACCC,-0.375 E-score
21,ATATGAAG,0.107 E-score
22,CTATGCAA,0.118 E-score
23,CTGAGCAC,-0.124 E-score
24,AAGTTCAA,0.0858 E-score
25,ATTGGTAA,0.265 E-score

row,Sequence,binding signal
1,CACTACAG,-0.0355 E-score
2,AGCACTGA,-0.136 E-score
3,GGGAGTCA,-0.189 E-score
4,GCCCAGGA,-0.196 E-score
5,ACCTAAAA,0.306 E-score
6,CCAGTATA,0.235 E-score
7,GTTTGGGA,0.0158 E-score
8,CAGCCAAC,-0.0888 E-score
9,CCGCGAAA,-0.00967 E-score
10,AGTACTCC,-0.106 E-score
11,TCACAGAA,0.0426 E-score
12,AGATTATA,0.276 E-score
13,AAGGTGTA,0.028 E-score
14,CCACATAC,0.181 E-score
15,ACGTATTA,0.287 E-score
16,CATGAATC,0.0791 E-score
17,AGATCGGA,0.035 E-score
18,AGTTGGCC,-0.0479 E-score
19,TATGCAGA,0.182 E-score
20,AAACAGAG,-0.0699 E-score
21,ACCAGGCC,-0.307 E-score
22,AGTTAGAC,0.211 E-score
